In PubChem BioAssay AID2147 (National Center for Advancing Translational Sciences (NCATS), 2009):
The campaign covered roughly 230,000 compounds. About 3,600 (1.6%) were called active. This list was built around the results that the source calls inconclusive (neither active nor inactive); the mix of calls is not that of the screen. Calls come from the whole dose curve; as a rule, active = well fitted inhibition curve with a large enough effect (not every such curve was filed as active); inconclusive = small, poorly fitted or top-dose-only effect, or another doubt; inactive = no such curve, though single readings can be large or run the other way. Potencies beside an inconclusive call are fits to weak or partial responses and may not hold up.

Biological target: Lysine-specific demethylase 4E (Homo sapiens) (UniProt B2RXH2)
Assay: qHTS Assay for Inhibitors of Human Jumonji Domain Containing 2E (JMJD2E)
Conditions: JMJD2E catalytic domain, FDH-coupled NADH fluorescence (FDH is formaldehyde dehydrogenase); series mostly up to 57.1 µM
Note: nearly all actives have a fitted effect of over 50% in size.
Potency is the fitted concentration of half-maximal effect; tags give direction and shape of the fitted curve.

Sequence of UniProt B2RXH2 (B2RXH2 whole entry, looked up, the tested form may be a part): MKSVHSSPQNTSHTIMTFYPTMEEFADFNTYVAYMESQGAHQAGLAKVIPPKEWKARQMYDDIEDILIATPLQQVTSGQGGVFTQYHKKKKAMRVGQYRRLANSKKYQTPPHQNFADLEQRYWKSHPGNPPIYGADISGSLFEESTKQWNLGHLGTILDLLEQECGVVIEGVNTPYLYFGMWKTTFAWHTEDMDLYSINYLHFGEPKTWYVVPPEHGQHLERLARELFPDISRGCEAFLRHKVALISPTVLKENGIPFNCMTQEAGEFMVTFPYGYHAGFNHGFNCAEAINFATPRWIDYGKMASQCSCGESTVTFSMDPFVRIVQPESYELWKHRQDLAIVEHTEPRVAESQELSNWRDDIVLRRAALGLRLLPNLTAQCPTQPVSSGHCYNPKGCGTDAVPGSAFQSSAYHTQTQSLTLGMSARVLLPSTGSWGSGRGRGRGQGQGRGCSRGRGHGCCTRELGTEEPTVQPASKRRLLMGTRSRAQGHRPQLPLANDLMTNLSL

**Q.** `O=C(COc1ncnc2ccccc12)NCCCN1CCCC1=O` was tested. Which Potency did it give?
**A.** inconclusive: 31.6 µM [inhibitor, single point]

**Q.** With `CC(NC(=O)CCc1nnc(-c2ccc(-c3ccccc3)cc2)o1)c1nc2ccccc2[nH]1` (stereo not given) as the compound, how does the Potency read?
**A.** inconclusive: 35.5 µM [inhibitor, single point]

**Q.** How did the Potency turn out when `NC(=O)c1nsc(C(=O)N(CC(=O)NCc2ccc3c(c2)OCO3)C2CCCC2)c1N` was run?
**A.** inconclusive: 25.1 µM [inhibitor, partial curve]

**Q.** Which Potency does the source give for `CCc1nc(SCC(=O)NNC(=O)c2ccc(OC)cc2)c2ccccc2n1` here?
**A.** inactive

**Q.** How did the Potency turn out when `O=C(Nc1cnn(Cc2ccccc2)c1)NC12CC3CC(CC(C3)C1)C2` was run?
**A.** inactive

**Q.** How did the Potency turn out when `O=C(Nc1ccc2oc(-c3ccncc3)nc2c1)c1ccccc1F` was run?
**A.** inconclusive: 35.5 µM [inhibitor, partial curve]

**Q.** With `CCC(=O)Nc1nnc(-c2ccccn2)o1` as the compound, how does the Potency read?
**A.** inconclusive: 28.2 µM [inhibitor, partial curve]

**Q.** How did the Potency turn out when `O=C(C1CCN(c2ccc(N3CCOCC3)nn2)CC1)N1CCc2ccccc2C1` was run?
**A.** inconclusive: 31.6 µM [inhibitor, partial curve]

**Q.** With `COC(=O)c1c(-c2c(Cl)cccc2Cl)noc1NC(=O)NN1CCCCC1` as the compound, how does the Potency read?
**A.** inactive

**Q.** Which Potency does the source give for `CC(=O)NN1C(=O)c2ccccc2NC1c1ccco1` (stereo not given) here?
**A.** inconclusive: 28.2 µM [inhibitor, partial curve]

**Q.** `COC(=O)c1ccc2c(=O)[nH]c(CSc3nc(C)cs3)nc2c1` was tested. Which Potency did it give?
**A.** inconclusive: 25.1 µM [inhibitor, single point]

**Q.** For `CCNC(=S)Nc1cccc(NC(=O)c2ccccc2O)c1`, which Potency is on record?
**A.** inconclusive: 28.2 µM [inhibitor, partial curve]

**Q.** How did the Potency turn out when `N/C(=N\OC(=O)c1cccc2ccccc12)c1ccccn1` was run?
**A.** inconclusive: 39.8 µM [inhibitor, single point]

**Q.** Which Potency does the source give for `COc1cc(C2CC(=O)N(CC(=O)NCC3CCCO3)c3ccccc3S2)cc(OC)c1OC` (stereo not given) here?
**A.** inactive

**Q.** How did the Potency turn out when `S=C(Nc1ccc(N2CCOCC2)cc1)Nc1ccc2nc(-c3ccco3)c(-c3ccco3)nc2c1` was run?
**A.** inconclusive: 2 µM [inhibitor, full curve]

**Q.** How did the Potency turn out when `Cc1ccc(C(=O)Nc2ccccc2C(=O)NC(Cc2c[nH]c3ccccc23)C(=O)O)cc1` (stereo not given) was run?
**A.** inactive

**Q.** With `CCn1c(=Nc2ccc(N3CCOCC3)cc2)ccc2ccccc21` as the compound, how does the Potency read?
**A.** inactive

**Q.** How did the Potency turn out when `O=C(NCN1CCCCC1)c1cnccn1` was run?
**A.** inactive

**Q.** Which Potency does the source give for `COc1ccc(C(=O)NC(NC(=S)Nc2ccc(S(N)(=O)=O)cc2)C(Cl)(Cl)Cl)cc1` (stereo not given) here?
**A.** inactive

**Q.** With `CCOC(=O)C1CCN(C(=O)c2cc3cc4cc(OC)ccc4nc3o2)CC1` as the compound, how does the Potency read?
**A.** inconclusive: 31.6 µM [inhibitor, partial curve]

**Q.** With `COc1ccc(S(=O)(=O)NC(CC(=O)NCCc2ccccc2)c2ccco2)cc1` (stereo not given) as the compound, how does the Potency read?
**A.** inactive

**Q.** How did the Potency turn out when `N=c1c(C(=O)NCc2ccco2)cc2c(=O)n3ccccc3nc2n1Cc1ccccc1` was run?
**A.** inconclusive: 28.2 µM [inhibitor, partial curve]

**Q.** Which Potency does the source give for `Cc1cc(NC(=O)c2ccc3c(c2)C(=O)N(Cc2ccccc2)C3=O)no1` here?
**A.** inactive

**Q.** Which Potency does the source give for `C(=C\c1ccco1)/C=N/n1cnnc1` here?
**A.** active: 14.1 µM

**Q.** Which Potency does the source give for `O=C(NCc1ccccc1Cl)c1ccc(S(=O)(=O)Nc2cccc(C(F)(F)F)c2)cc1` here?
**A.** inactive

**Q.** Which Potency does the source give for `O=C(Nc1ccc(-c2nc3ccccc3[nH]2)cc1)c1c(F)c(F)c(F)c(F)c1F` here?
**A.** inconclusive: 31.6 µM [inhibitor, partial curve]

**Q.** How did the Potency turn out when `OCCCNc1ncnc2c1[nH]c1ccccc12` was run?
**A.** inconclusive: 31.6 µM [inhibitor, partial curve]

**Q.** `CC1CCN(c2nc(/C=C/c3ccccc3)nc3ccccc23)CC1` was tested. Which Potency did it give?
**A.** inconclusive: 28.2 µM [inhibitor, partial curve]

**Q.** For `CC(C)C(=O)Nc1c(-c2ccccc2)c(=O)c2ccccc2n1C`, which Potency is on record?
**A.** inconclusive: 39.8 µM [inhibitor, single point]

**Q.** Which Potency does the source give for `CCOC(=O)c1sc2nc(C)cc(-c3ccccc3)c2c1N` here?
**A.** inconclusive: 25.1 µM [inhibitor, partial curve]

**Q.** How did the Potency turn out when `COC(=O)c1[nH]c2cccc(C)c2c1NC(=O)CN1CCN(c2ccccc2OC)CC1` was run?
**A.** inconclusive: 35.5 µM [inhibitor, single point]

**Q.** With `CC(=O)Nc1c(C(=O)C2CC2)oc2ccccc12` as the compound, how does the Potency read?
**A.** inconclusive: 25.1 µM [inhibitor, single point]

**Q.** For `CC1=CC(C)(C)N2C(=O)C(=Nc3ccc(O)cc3)c3cccc1c32`, which Potency is on record?
**A.** active: 12.6 µM

**Q.** How did the Potency turn out when `N#Cc1c(-c2ccccc2)cc(-c2ccccc2)nc1SCC(=O)NCC(=O)O` was run?
**A.** inconclusive: 22.4 µM [inhibitor, partial curve, poor fit]

**Q.** With `NC(=S)N/N=C1\CCSc2ccc(Cl)cc21` as the compound, how does the Potency read?
**A.** inconclusive: 39.8 µM [inhibitor, single point]

**Q.** How did the Potency turn out when `O=c1c(O)c(-c2ccccc2)oc2ccc3occc3c12` was run?
**A.** inconclusive: 35.5 µM [inhibitor, single point]

**Q.** How did the Potency turn out when `Cc1csc(NC(=O)c2cc(=O)[nH]c3ccccc23)n1` was run?
**A.** inconclusive: 25.1 µM [inhibitor, partial curve]

**Q.** `Cc1cccc(C)c1NC(=O)CN` was tested. Which Potency did it give?
**A.** inactive

**Q.** `Cc1ccccc1NC(=O)c1ccc(C)c(S(=O)(=O)Nc2ccccn2)c1` was tested. Which Potency did it give?
**A.** inconclusive: 35.5 µM [inhibitor, partial curve]

**Q.** How did the Potency turn out when `O=C(CN1C(=O)c2cccc3cccc1c23)N1CCN(c2ccc(F)cc2)CC1` was run?
**A.** inconclusive: 28.2 µM [inhibitor, partial curve]

**Q.** For `O=C(NC1CCCCC1)N(Cc1nc2ccccc2c(=O)[nH]1)C1CCCCC1`, which Potency is on record?
**A.** inconclusive: 35.5 µM [inhibitor, single point]

**Q.** `C=CCn1c(SCC(=O)O)nnc1-c1cccs1` was tested. Which Potency did it give?
**A.** inconclusive: 31.6 µM [inhibitor, single point]

**Q.** Which Potency does the source give for `c1ccc(COc2ccc(CN3CCN(c4ccccn4)CC3)cc2)cc1` here?
**A.** inactive

**Q.** With `COc1ccc(C(=O)OCC(=O)Nc2cc(C)on2)c(OC)c1OC` as the compound, how does the Potency read?
**A.** inactive

**Q.** How did the Potency turn out when `Cc1cc2nc3c(=O)[nH]c(=O)[nH]c3nc2c([N+](=O)[O-])c1N` was run?
**A.** inconclusive: 35.5 µM [inhibitor, single point]

**Q.** With `CCOC(=O)c1cc(C#N)c(N2CCN(C(=O)c3ccccc3)CC2)nc1C(F)(F)F` as the compound, how does the Potency read?
**A.** inactive

**Q.** How did the Potency turn out when `COC(=O)CCCC1=CC2=CC(=O)C(C)(OC(=O)c3ccco3)C(=O)C2=CO1` (stereo not given) was run?
**A.** inactive

**Q.** How did the Potency turn out when `COc1ccc(CNC2CCCc3ccccc32)cc1OC` (stereo not given) was run?
**A.** inconclusive: 35.5 µM [inhibitor, single point]

**Q.** With `O=C(COC(=O)c1nn(-c2ccccc2)c(=O)c2ccccc12)NC1CCS(=O)(=O)C1` (stereo not given) as the compound, how does the Potency read?
**A.** inconclusive: 39.8 µM [inhibitor, single point]

**Q.** How did the Potency turn out when `CCOc1ccc2[nH]c(=O)c(CN(Cc3ccc(F)cc3)C(=O)c3ccco3)cc2c1` was run?
**A.** inconclusive: 31.6 µM [inhibitor, partial curve]

**Q.** With `CC1CCCCN1CCNC(=O)c1cc2c(-c3ccccc3F)nn(C)c2s1` (stereo not given) as the compound, how does the Potency read?
**A.** inconclusive: 28.2 µM [inhibitor, partial curve]

**Q.** For `Cc1cccc2c1-c1sc(C(=O)Nc3nccs3)cc1CO2`, which Potency is on record?
**A.** inconclusive: 25.1 µM [inhibitor, partial curve]

**Q.** Which Potency does the source give for `O=C(Cn1ccc(=O)[nH]c1=O)Nc1ccc(C(=O)O)c(O)c1` here?
**A.** inconclusive: 35.5 µM [inhibitor, single point]

**Q.** `COc1ccc(N(Cc2cc3ccc(C)cc3[nH]c2=O)C(=O)C2CCCO2)cc1` (stereo not given) was tested. Which Potency did it give?
**A.** inconclusive: 31.6 µM [inhibitor, single point]

**Q.** With `O=c1c2ccccc2oc2nc3n(c(=O)c12)CCCS3` as the compound, how does the Potency read?
**A.** inconclusive: 28.2 µM [inhibitor, single point]

**Q.** With `COc1cccc(CN2CCNC(=O)C2CC(=O)NCCOc2cccnc2)c1` (stereo not given) as the compound, how does the Potency read?
**A.** inconclusive: 6.31 µM [inhibitor, single point]

**Q.** `O=C(O)c1ccccc1/C=N/NC(=O)c1cc(-c2ccco2)nc2ccccc12` was tested. Which Potency did it give?
**A.** inconclusive: 31.6 µM [inhibitor, partial curve]

**Q.** How did the Potency turn out when `CC(C)OC(=O)c1sc2nc(-c3ccccc3)ccc2c1N` was run?
**A.** inconclusive: 28.2 µM [inhibitor, partial curve]

**Q.** `CN1CC(=O)N(CC(=O)N2N=C(c3ccc(Cl)cc3)CC2c2ccco2)C1=O` (stereo not given) was tested. Which Potency did it give?
**A.** inactive

**Q.** `CC1CCCCN1C(=O)/C=C/c1ccccc1[N+](=O)[O-]` (stereo not given) was tested. Which Potency did it give?
**A.** inactive

**Q.** `CCCc1cc(=O)[nH]c(SCC(=O)Nc2ccc([N+](=O)[O-])cc2C#N)n1` was tested. Which Potency did it give?
**A.** inactive

**Q.** `Cc1noc(C)c1/C=N/Nc1ccc2ccccc2n1` was tested. Which Potency did it give?
**A.** inconclusive: 3.55 µM [inhibitor, full curve]

**Q.** For `CCN(CC)CCCNC(=O)CCC(=O)Nc1ccc2nc(N3CCC(C)CC3)cc(C)c2c1`, which Potency is on record?
**A.** inconclusive: 28.2 µM [inhibitor, partial curve]

**Q.** How did the Potency turn out when `CN(C)CC(=O)N1CCc2ccccc2C1` was run?
**A.** inconclusive: 39.8 µM [inhibitor, single point]

**Q.** How did the Potency turn out when `O=C(COc1ccc(Cl)cc1[N+](=O)[O-])N1CCCCCC1` was run?
**A.** inconclusive: 35.5 µM [inhibitor, single point]

**Q.** With `CC(C)(Oc1ccc(CCNC(=O)c2ccc(-c3ccccc3)o2)cc1)C(=O)O` as the compound, how does the Potency read?
**A.** inconclusive: 39.8 µM [inhibitor, single point]

**Q.** Which Potency does the source give for `CC(=O)NC(CC(=O)NC1CCCCCC1)c1ccccc1` (stereo not given) here?
**A.** inactive

**Q.** Which Potency does the source give for `O=C(Cn1c(=O)oc2cc(S(=O)(=O)N3CCCC3)ccc21)Nc1ccc(C(F)(F)F)cc1` here?
**A.** inconclusive: 39.8 µM [inhibitor, single point]

**Q.** Which Potency does the source give for `CC1=CC2=NC(=O)CC(C)(C(=O)N(CC(=O)NC(C)(C)C)C3CCCC3)N2C=C1` (stereo not given) here?
**A.** inconclusive: 31.6 µM [inhibitor, partial curve]

**Q.** `N#C/C(=C/c1cn(-c2ccccc2)nc1-c1cccc(S(=O)(=O)N2CCCC2)c1)C(=O)NCc1ccco1` was tested. Which Potency did it give?
**A.** inconclusive: 28.2 µM [inhibitor, partial curve]
